Measured values taken from PMC12436592 (Nature Communications, 2025).
Values joined by “and” are separate entries in the source; they are usually repeats but may differ in a detail not shown here. Equal entries are not always repeated. This continues a long series; more values of the same kind are listed elsewhere.

Molecular target: T1, hP2X7R (Homo sapiens, UniProt Q99572)
T1 sequence (Q99572 1-595): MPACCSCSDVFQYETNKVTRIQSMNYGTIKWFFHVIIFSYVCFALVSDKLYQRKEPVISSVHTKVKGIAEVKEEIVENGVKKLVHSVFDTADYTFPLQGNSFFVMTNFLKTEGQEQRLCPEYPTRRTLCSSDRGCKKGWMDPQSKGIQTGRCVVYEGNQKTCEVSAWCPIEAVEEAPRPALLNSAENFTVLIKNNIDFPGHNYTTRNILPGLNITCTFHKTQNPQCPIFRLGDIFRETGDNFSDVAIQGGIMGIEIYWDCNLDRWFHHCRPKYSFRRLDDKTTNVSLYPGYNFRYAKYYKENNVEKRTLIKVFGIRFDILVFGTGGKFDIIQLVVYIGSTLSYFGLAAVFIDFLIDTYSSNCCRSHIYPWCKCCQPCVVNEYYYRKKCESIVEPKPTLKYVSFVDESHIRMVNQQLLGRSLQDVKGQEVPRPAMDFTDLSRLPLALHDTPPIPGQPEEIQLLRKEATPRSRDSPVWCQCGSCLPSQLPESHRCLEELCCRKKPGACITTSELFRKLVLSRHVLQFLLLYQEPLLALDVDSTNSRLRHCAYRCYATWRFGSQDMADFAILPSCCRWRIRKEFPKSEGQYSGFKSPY
Assay: TEVC determination of antagonist binding kinetics in Xenopus oocytes
Type: cell-based
Parameters: expressed in transfected cells; host or cells: Xenopus laevis oocytes injected with capped cRNA (modified pUC19 vector, T7)
Settings: for on-rate to hP2X7R, Response [%]: time 4 min, single replicates
Description: Xenopus laevis frogs were from Nasco International (Fort Atkinson, WI) and kept at the Core Facility Animal Models (CAM) of the Biomedical Center (BMC) of LMU Munich, Germany (Az:4.3.2–5682/LMU/BMC/CAM) in accordance with the EU Animal Welfare Act. Ovaries were surgically extracted (ROB_54-011-AZ 2532.Vet_02-23-166), treated with collagenase (Nordmark, Uetersen, Germany 1.0–1.5 mg/mL, ≥2 at RT) and defolliculated (15-min treatment in Ca^2+-free oocyte Ringer (90 mM NaCl, 1 mM KCl, 2 mM MgCl2, 5 mM HEPES), respectively. 50 nL of cRNA (0.5 µg/µL) were injected using a Nanoject II injector (Science Products, Drummond) and oocytes were kept in ND96 (96 mM NaCl, 2 mM KCl, 1 mM MgCl2, 1 mM CaCl2, 5 mM HEPES, pH 7.4–7.5). The plasmid containing the hP2X7R was linearized with NotI-HF (NEB) and purified with the MinElute Reaction Cleanup Kit (Qiagen, Hilden, Germany). Capped cRNA was synthesized using the mMESSAGE mMACHINE™ T7 Transcription Kit (ThermoFisher Scientific, Schwerte, Germany) and dissolved in nuclease-free water (500 ng/µL). Injected oocytes were allowed to express for at least 36 hours.
Two-electrode voltage clamp recordings were performed at room temperature and a holding potential of −70 mV using a Turbo Tec-05X Amplifier (npi electronic, Tamm, Germany), a magnetic valve system, and CellWorks E 5.5.1 software. Currents were filtered at 1 kHz and digitized at 200 Hz. Electrode resistances were below 1.2 MΩ. […] Recordings were performed in ND96.
After obtaining reproducible agonist-evoked responses, solutions were switched to antagonist-containing recording solutions with and without ATP to determine association rates. Responses following antagonist application were normalized to the preceding, stabilized agonist responses. Dissociation was determined in 1- or 2 min intervals when currents were reduced to <10%. Association curves were fit to the data by the equation % Response = (100-Plateau)*exp(-kobs*Time) + Plateau, where Plateau indicates the response at equilibrium and kobs the experimentally determined on-rate. All data were analyzed using Prism software (GraphPad Software, Inc., Version 8.3.0, San Diego, CA) and are presented as means ± SD from at least three oocytes. […] The final concentration of DMSO in the recording solution was ≤1%.
Supplementary Fig. 10: Kinetics of ligands binding to the hP2X7R measured by TEVC. (A) […]
All data represented as mean ± S.D. with n=3, 7, 7, and 7 f or the experiments performed at 3 nM, 10 nM, 30 nM, and 100 nM […]
(B) Representative current traces for t he activation
(C) On- and off-r at e constants and Ki
Observed on- r at es kobs were determined by fitting the data (Fig. 4H, Supplementary Fig. 10A) to the function: % response = (100- Plateau)*exp(-kobs*time)+Plateau and plotted against the antagonist concentrations to obtain koff according to k obs=kon*F+koff. Assuming a (simplified) 1:1 binding model, of f-r at e constant koff and Ki values were estimated using the previous formulas as well as Ki=koff/kon. […]
determined by Ca2+ imaging (18 nM, Fig. 3B ) and the binding equilibrium reached at each […]
values of UB-MBX-46 c annot reflect an accurate value due to the nearly negligible dissociation on the timescale of the experiment. If k off was estimated based on the IC50 value (IC50 = koff/kon panel D), a more accurate koff value can be obtained. Numbers in square brackets are 95% Confidence Intervals. *values obtained from an extrapolated dose inhibition curve from D . (D) The plateau values, representing the binding equilibrium, were used to generate dose inhibition

Structure (SMILES)	Response [%], on-rate to hP2X7R (3 nM, 2 min)	Response [%], on-rate to hP2X7R (3 nM, 4 min)	Response [%], on-rate to hP2X7R (3 nM, 6 min)	Response [%], on-rate to hP2X7R (3 nM, 28 min)	Response [%], on-rate to hP2X7R (3 nM, 30 min)	Response [%], on-rate to hP2X7R (10 nM, 2 min)	Response [%], on-rate to hP2X7R (10 nM, 4 min)	Response [%], on-rate to hP2X7R (10 nM, 6 min)	Response [%], on-rate to hP2X7R (30 nM, 2 min)	Response [%], on-rate to hP2X7R (30 nM, 4 min)	Response [%], on-rate to hP2X7R (100 nM, 2 min, 300 µM ATP pulses, single oocytes)	Response [%], on-rate to hP2X7R (100 nM, 4 min)	Response [%], on-rate to hP2X7R (100 nM, 6 min)	on-rate to hP2X7R, Response [%] (30 nM)	on-rate to hP2X7R, Response [%] (100 nM)
CC12CC3CC1(C)C1(C)CC3(C(=O)NNc3ccccc3Cl)CC21C [UB-MBX-46]	87.6% and 93.8% and 93%	86.5% and 89.7% and 90%	84.6% and 85.5% and 87.3%	66.6% and 70%	66.7% and 64.7% and 63.7%	78.8% and 76.6% and 83.6% and 80.5%	65.6% and 66.4% and 71.6% and 66.5%	54.7% and 52.1% and 57.7% and 54.3%	65.3% and 46.7% and 50.8% and 53.4%	45.3% and 24.9% and 29.9% and 32%	24.7% and 20.8% and 25.6% and 27.8%	6.2% and 6.1% and 5.5% and 9%	2.1% and 1.9% and 1.8% and 3.6%		
O=C(NNc1ccccc1Cl)C12CC3CC(CC(C3)C1)C2 [UB-MALT-P30]														30.6%	1.4% and 0% and 4.1% and 14.5% and 10.6% and 12.6%
